# Measurements taken from PubChem BioAssay AID602310 (National Center for Advancing Translational Sciences (NCATS), 2012).
# Screen size: about 410,000 compounds; about 310 (0.076%) were called active. Inconclusive results, whose numbers are uncertain, are shown with a selection of clear calls. Calls come from the whole dose curve; as a rule, active = well fitted curve in the direction sought with a large enough effect; inconclusive = small, poorly fitted or top-dose-only effect; inactive = flat fitted curve, though single readings scatter. A potency beside an inconclusive call is a rough fit, not a confirmed value.
# Biological target: DNA dC->dU-editing enzyme APOBEC-3G (Homo sapiens) (UniProt Q9HC16)
# Experiment: qHTS for Inhibitors of Vif-A3G Interactions: qHTS; note: nearly all actives have a fitted effect of over 60% in size;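 for activity, negative = active: hits raise eYFP signal because A3G escapes Vif-driven loss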
# Settings: HeLa A3G-eYFP + Vif (tagged APOBEC3G with the HIV-1 protein that degrades it), YFP fluorescence, overnight; series mostly up to 46.1 µM; activity, negative = active: at the top concentration
# How it was run: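 Read-out is eYFP fluorescence (Ex 488/Em 500-530) from Vif-expressing HeLa A3G-eYFP cells; more signal means A3G escaped Vif-mediated degradation. Cells plated overnight, compound pinned in, incubated overnight at 37 deg C.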
# % is set by controls: 0 for no effect and ±100 for the full control effect; potency is the fitted concentration of half-maximal effect; tags give direction and shape of the fitted curve.
# Chain of UniProt Q9HC16 (Q9HC16 whole entry, looked up): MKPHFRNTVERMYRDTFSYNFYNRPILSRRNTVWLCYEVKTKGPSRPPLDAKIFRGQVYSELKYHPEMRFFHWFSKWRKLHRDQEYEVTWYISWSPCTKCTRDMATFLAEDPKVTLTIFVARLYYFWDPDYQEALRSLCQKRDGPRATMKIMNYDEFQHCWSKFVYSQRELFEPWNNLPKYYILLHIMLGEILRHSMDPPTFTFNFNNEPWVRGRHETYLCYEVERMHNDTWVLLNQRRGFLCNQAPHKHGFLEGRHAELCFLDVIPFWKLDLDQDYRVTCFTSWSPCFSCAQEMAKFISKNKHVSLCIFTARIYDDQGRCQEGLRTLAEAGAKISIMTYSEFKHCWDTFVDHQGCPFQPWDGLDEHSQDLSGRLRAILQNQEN
Structure (SMILES),Potency,"activity, negative = active"
CC(C)C[C@H]1CN([C@@H](CC(C)C)CN2CCC[C@@H]2CN2C(=S)NC[C@@H]2Cc2ccc(O)cc2)C(=S)N1CC1CCCCC1,"inconclusive: 17.8 µM [inhibitor, single point]",
CN(C)c1ccc(/C=C/c2nc3ccccc3s2)c(Cl)c1,"inconclusive: 22.4 µM [inhibitor, single point]",
S=P(N1CC1)(N1CC1)N1CC1,,inactive: -1.14%
CCN1C(=O)c2cccc3c(S(=O)(=O)Nc4ccncc4)ccc1c23,,inactive: -0.698%
O=C(NC1CCCCC1)c1cccc2c1C(=O)c1ccc(N3CCC(Cc4ccccc4)CC3)cc1S2(=O)=O,"inconclusive: 17.8 µM [inhibitor, partial curve, poor fit]",
Cc1cc(Sc2nnc(/N=C/N(C)C)s2)c2ccccc2n1,"inconclusive: 35.5 µM [inhibitor, single point]",
O=C1CC(/C=C/c2cccnc2)=Nc2ccccc2N1,"inconclusive: 35.5 µM [inhibitor, single point]",
CCS(=O)(=O)N1Cc2ccccc2CC1C(=O)Nc1nc2ccc(C)cc2s1 (stereo unspecified),"inconclusive: 22.4 µM [inhibitor, single point]",
COc1ccc2cc3c(N)c(C(=O)NCc4ccco4)sc3nc2c1,"inconclusive: 31.6 µM [inhibitor, single point]",
O=C(O)c1cc(-c2ccco2)nc2ccc(Br)cc12,inactive,
CC1=CN2C(=N)/C(=C/c3ccc(Sc4ccc(C)cc4)o3)C(=O)N=C2S1,"inconclusive: 22.4 µM [inhibitor, single point]",
C=CCN1C(c2ccc(Br)cc2)=CS/C1=C(\C#N)c1nnc(N2CCOCC2)n1-c1ccccc1,,inactive: -0.201%
CCc1cc(C(=O)N/N=C/c2ccc(OC)cc2)c2ccccc2n1,"inconclusive: 7.94 µM [inhibitor, partial curve, poor fit]",
COC(=O)c1cccc(Nc2c3c(nc4ccccc24)CCC3)c1,"inconclusive: 17.8 µM [inhibitor, partial curve, poor fit]",
CCOC(=O)c1cccc(NC(=O)N2CCC(CN3CCc4ccccc4C3)CC2)c1,,inactive: -3.7%
COc1ccc(CN2CCN(Cc3ccccc3F)CC2)c(OC)c1,,inactive: 1.92%
Cc1cc(C)n(C(=O)c2c([N+](=O)[O-])c(C)nn2C)n1,,inactive: 4.43%
Nc1nc2c(c(=O)[nH]1)C(c1cccc3ccccc13)C1=C(N2)c2ccccc2C1=O (stereo unspecified),"inconclusive: 22.4 µM [inhibitor, single point]",
CCOCCCNC(=O)c1cc(Cl)c(NC(=O)C2=C(C)OCCS2)cc1OC,,inactive: -6.57%
COc1cc(OC)c2c(-c3cccc(-c4ccoc4)c3)cc(=O)oc2c1,"inconclusive: 3.55 µM [inhibitor, full curve, poor fit]",
COc1ccc(C=O)cc1COc1ccc2c(c1)OCO2,"inconclusive: 17.8 µM [inhibitor, single point]",

Structure (SMILES),Potency,"activity, negative = active"
Cc1c(N2C(=O)/C(=C\c3ccc(N(C)C)cc3)N(C)C2=S)c(=O)n(-c2ccccc2)n1C,"inconclusive: 11.2 µM [inhibitor, partial curve, poor fit]",
O=C(Nc1ccc2nc(-c3ccco3)c(-c3ccco3)nc2c1)N1CCCCCC1,,inactive: -0.896%
CCCCCCc1cc2cc(-c3nnc(-c4ccc(C)cc4)o3)c(=O)oc2cc1O,"inconclusive: 2 µM [inhibitor, partial curve, poor fit]",
CC1C/C(=N/Nc2nc3ccccc3[nH]2)CC(C)(C)C1 (stereo unspecified),,inactive: -0.411%
COc1cc(/C=C2\C(=N)N3N=CSC3=NC2=O)cc(Br)c1OC(=O)c1ccco1,"inconclusive: 35.5 µM [inhibitor, single point]",
Cc1cccc(C(=O)N2CCc3cc(-c4nc(NC(=O)CN5CCCC5)sc4C)ccc32)c1,"inconclusive: 11.2 µM [inhibitor, partial curve]",
COc1cccc(OC(=O)c2ccccc2)c1OC(=O)c1ccccc1,"inconclusive: 31.6 µM [inhibitor, single point]",
C=CCn1c(SCc2c(C)noc2C)nc2sc(C)c(C)c2c1=O,"inconclusive: 2.82 µM [inhibitor, full curve, poor fit]",
COc1cc(OC)c(C2=NOC(C(=O)NCc3ccc4c(c3)OCO4)C2)cc1Cl (stereo unspecified),"inconclusive: 7.08 µM [inhibitor, partial curve, poor fit]",
CCN(c1ccccc1)S(=O)(=O)c1ccc(C(=O)NC2CCN(Cc3ccccc3)CC2)cc1,"inconclusive: 35.5 µM [inhibitor, partial curve, poor fit]",
CN(C)c1ccc(CNC(=O)C2(C)Cc3c(-c4cccc(C(N)=O)c4)ccnc3O2)cc1 (stereo unspecified),"inconclusive: 17.8 µM [inhibitor, single point]",
O=[N+]([O-])c1ccc(N/N=C/c2sc(N3CCOCC3)nc2-c2ccccc2)c(S(=O)(=O)Nc2ccc(Cl)cc2)c1,"inconclusive: 1.12 µM [inhibitor, full curve, poor fit]",
Cc1ccc2nc(/C(C#N)=C\c3ccc([N+](=O)[O-])o3)[nH]c2c1,active: 6.31 µM,
COc1ccc(/C(O)=C/c2nc3ccccc3n(-c3ccccc3)c2=O)cc1,,inactive: -9.56%
CCN1C(=O)[C@@H]2Cc3c([nH]c4ccccc34)C(c3ccc(OC)cc3)N2C1=S (stereo partly specified),"inconclusive: 3.16 µM [inhibitor, single point]",
CCOc1ccc(-c2cc(C(=O)N/N=C(\C)c3cccnc3)c3ccccc3n2)cc1,"inconclusive: 12.6 µM [inhibitor, partial curve]",
CCOc1ccc(NC(=O)c2c(NCc3cccs3)sc3c2CCCCC3)cc1,,inactive: 2.74%
COc1ccc(C2=NN(C(=O)COC(=O)c3ccc(S(C)(=O)=O)c([N+](=O)[O-])c3)C(c3ccco3)C2)cc1 (stereo unspecified),"inconclusive: 20 µM [inhibitor, partial curve, poor fit]",
Cc1onc(-c2c(F)cccc2Cl)c1C(=O)O/N=C(\N)c1ccc([N+](=O)[O-])o1,active: 22.4 µM,
CC[n+]1c(C=C2C=C(C)OC(C)=C2)sc2ccccc21,active: 5.62 µM,
